Experimental data from ChEMBL document CHEMBL4359827 (ACS Med Chem Lett, 2019).

How the values were obtained:
[1] = molecular target: Cytochrome P450 2C9 (Homo sapiens, UniProt P11712)
[2] = molecular target: Cytochrome P450 2C19 (Homo sapiens, UniProt P33261)
[3] = molecular target: T1, Cytochrome P450 1A2 (Homo sapiens, UniProt P05177)
T1 sequence (P05177 whole entry): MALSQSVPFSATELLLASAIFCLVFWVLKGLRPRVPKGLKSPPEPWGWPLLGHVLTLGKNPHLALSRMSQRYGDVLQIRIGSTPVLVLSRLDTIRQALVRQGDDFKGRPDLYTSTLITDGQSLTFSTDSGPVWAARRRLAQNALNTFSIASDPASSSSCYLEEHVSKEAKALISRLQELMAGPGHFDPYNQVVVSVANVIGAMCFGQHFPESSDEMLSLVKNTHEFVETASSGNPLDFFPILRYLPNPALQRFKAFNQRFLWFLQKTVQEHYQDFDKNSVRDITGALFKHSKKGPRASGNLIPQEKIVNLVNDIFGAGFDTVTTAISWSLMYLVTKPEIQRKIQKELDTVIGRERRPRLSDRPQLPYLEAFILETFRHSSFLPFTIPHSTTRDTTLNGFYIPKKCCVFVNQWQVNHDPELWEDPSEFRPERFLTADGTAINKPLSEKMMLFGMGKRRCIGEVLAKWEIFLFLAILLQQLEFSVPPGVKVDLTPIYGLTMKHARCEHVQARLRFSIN

[4] = molecular target: Cytochrome P450 2D6 (Homo sapiens, UniProt P10635)
Sequence of Cytochrome P450 2D6 (P10635 whole entry): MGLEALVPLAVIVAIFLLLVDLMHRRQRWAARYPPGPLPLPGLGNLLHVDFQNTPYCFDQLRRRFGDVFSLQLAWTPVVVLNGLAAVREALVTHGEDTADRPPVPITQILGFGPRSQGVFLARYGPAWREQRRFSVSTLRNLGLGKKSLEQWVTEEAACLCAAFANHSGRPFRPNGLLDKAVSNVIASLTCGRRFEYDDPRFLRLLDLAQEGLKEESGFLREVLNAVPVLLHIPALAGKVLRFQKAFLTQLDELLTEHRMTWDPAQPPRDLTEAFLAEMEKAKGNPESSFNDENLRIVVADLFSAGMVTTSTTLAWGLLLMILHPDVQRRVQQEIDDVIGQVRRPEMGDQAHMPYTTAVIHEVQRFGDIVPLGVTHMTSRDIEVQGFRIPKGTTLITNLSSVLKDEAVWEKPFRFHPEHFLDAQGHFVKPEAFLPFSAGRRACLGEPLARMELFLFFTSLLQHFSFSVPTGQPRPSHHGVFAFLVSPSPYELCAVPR

Sequence of Cytochrome P450 2C19 (P33261 whole entry): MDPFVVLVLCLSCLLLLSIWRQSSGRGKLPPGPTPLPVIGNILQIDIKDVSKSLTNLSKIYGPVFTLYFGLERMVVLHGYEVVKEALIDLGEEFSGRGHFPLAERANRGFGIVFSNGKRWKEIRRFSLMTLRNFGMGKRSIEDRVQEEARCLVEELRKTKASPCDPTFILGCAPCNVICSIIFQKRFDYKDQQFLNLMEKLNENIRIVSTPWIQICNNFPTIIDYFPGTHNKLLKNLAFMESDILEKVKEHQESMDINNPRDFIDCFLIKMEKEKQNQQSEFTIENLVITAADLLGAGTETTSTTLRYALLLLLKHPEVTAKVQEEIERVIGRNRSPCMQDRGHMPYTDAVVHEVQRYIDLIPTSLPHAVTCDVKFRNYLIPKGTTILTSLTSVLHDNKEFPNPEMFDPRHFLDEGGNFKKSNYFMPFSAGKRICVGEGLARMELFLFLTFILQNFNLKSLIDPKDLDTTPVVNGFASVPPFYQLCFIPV
Sequence of Cytochrome P450 2C9 (P11712 whole entry): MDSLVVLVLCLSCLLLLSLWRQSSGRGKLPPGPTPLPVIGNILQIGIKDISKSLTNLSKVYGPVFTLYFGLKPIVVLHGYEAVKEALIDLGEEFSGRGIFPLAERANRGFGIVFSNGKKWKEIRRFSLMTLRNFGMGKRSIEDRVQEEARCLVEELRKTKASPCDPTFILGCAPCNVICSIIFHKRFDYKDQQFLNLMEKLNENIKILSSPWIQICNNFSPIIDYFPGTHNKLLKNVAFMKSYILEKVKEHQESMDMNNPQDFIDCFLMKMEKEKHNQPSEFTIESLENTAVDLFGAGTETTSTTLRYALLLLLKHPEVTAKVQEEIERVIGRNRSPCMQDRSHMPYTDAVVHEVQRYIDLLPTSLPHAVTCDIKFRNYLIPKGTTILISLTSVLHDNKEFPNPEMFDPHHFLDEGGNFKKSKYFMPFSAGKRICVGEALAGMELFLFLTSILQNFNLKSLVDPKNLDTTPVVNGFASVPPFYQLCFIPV

| Compound | IC50 [1] | IC50 [2] | IC50 [3] | IC50 [4] |
| --- | --- | --- | --- | --- |
| Cc1cc(N2CCC(C3c4c(F)cccc4-c4cncn43)CC2)ccc1-c1cnn(C)c1 (stereo unspecified) | 0.3 µM | 1570 nM | > 10 µM | 4.51 µM |
| Cn1cc(-c2ccc(N3CCC(C4c5c(F)cccc5-c5cncn54)CC3)cc2F)cn1 (stereo unspecified) | 7.4 µM | 6810 nM | > 10 µM | > 10 µM |
| Cn1cc(-c2ccc(N3CCC(C4c5c(F)cccc5-c5cncn54)CC3)c(F)c2)cn1 (stereo unspecified) |  | 1150 nM | 8.95 µM | 9.61 µM |
